Results from PubChem BioAssay AID1745853 (National Center for Advancing Translational Sciences (NCATS), 2022).
“And” between values parts separate entries of the source, which are not always exact repeats. Equal values may be shown once. This is one part of the list. The main result of the screen is listed elsewhere. These columns were measured beside it and carry no call.

Experiments:
Assay in all cases: Primary Screen for Target Class Profiling of Small Molecule Inhibitors of Methyltransferases
[1] = target: Glycine N-methyltransferase (Homo sapiens) (UniProt Q14749); settings: purified enzyme, MTase-Glo SAH luminescence; measured here: GNMT inhibition; at 40 µM; stronger effect = lower value
Method in brief: (§1)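 Each enzyme was assayed with SAM and its substrate. SAH formation detected by MTase-Glo luminescence; single-point 40 uM screen[…].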

[2] = target: Guanidinoacetate N-methyltransferase (Homo sapiens) (UniProt Q14353); settings: purified enzyme, MTase-Glo SAH luminescence; measured here: GAMT inhibition; at 40 µM; stronger effect = lower value
Method in brief: as §1

[3] = target: Histamine N-methyltransferase (Homo sapiens) (UniProt P50135); settings: purified enzyme, MTase-Glo SAH luminescence; measured here: HNMT inhibition; at 40 µM; stronger effect = lower value
Method in brief: as §1

[4] = target: Nicotinamide N-methyltransferase (Homo sapiens) (UniProt P40261); settings: purified enzyme, MTase-Glo SAH luminescence; measured here: NNMT inhibition; at 40 µM; stronger effect = lower value
Method in brief: as §1

[5] = target: Phenylethanolamine N-methyltransferase (Homo sapiens) (UniProt P11086); settings: purified enzyme, MTase-Glo SAH luminescence; measured here: PNMT inhibition; at 40 µM; stronger effect = lower value
Method in brief: as §1
On the % scale 0 is the no-effect control and ±100 the full control effect.

Structure (SMILES)	activity change, negative = inhibition [1]	activity change, negative = inhibition [2]	activity change, negative = inhibition [3]	activity change, negative = inhibition [4]	activity change, negative = inhibition [5]
O=C(NCCc1ccc(Cl)cc1)c1ccc2c(=O)[nH]c3c(C(=O)NCC4CCCO4)sc(=S)n3c2c1 (stereo not given)	-47.6%	0%	-0.773%	-29.7%	-25.2%
CCc1ccc(N2C(=O)c3c(C(=O)OC)ncn3CC2(C)C(=O)NC2CCCC2)cc1 (stereo not given)	0.806%	-0.198%	-1.26%	-3.81%	-2.63%
CO[C@H]1/C=C\O[C@@]2(C)Oc3c(C)c(O)c4c(O)c(c5c(nc6cc(C)ccn65)c4c3C2=O)NC(=O)/C(C)=C\C=C/[C@H](C)[C@H](O)[C@@H](C)[C@@H](O)[C@@H](C)[C@H](OC(C)=O)[C@@H]1C	-0.41%	18.2%	10.4%	-2.62%	7.93%
O=C(Cc1ccc(Cl)cc1)N1CCc2c(nc3cc[nH]n3c2=O)C1	-13.5%	-2.3%	-4.84%	-29.1%	-3.6%
C=C(C)C(=O)O[C@H]1C[C@@](C)(O)C(=O)CC(O)/C(C)=C\[C@H]2OC(=O)C(=C)[C@H]12 (stereo not given in full)	0%	-2.77%	5.26%	-12.2%	5.5%
O=C(c1ccc(-c2cccc(O)c2)nc1)N1CCCN(c2ncccn2)CC1	-4.82%	-4.69%	-6.09%	-8.7%	-5.82%
Cc1ccccc1CNC(=O)c1cc2n(n1)CC(C)(C(=O)NC1CCCC1)N(C)C2=O (stereo not given)	-0.281%	3.83%	0.477%	4.51%	0.32%
CC/C(=C(\c1ccccc1)c1ccc(OCCN(C)C)cc1)c1ccccc1	8.65% and 7.47%	10.4% and 12.8%	3.08% and 10.7%	-12.4% and -6.51%	-2.01% and 3.17%
COCCNc1cc(-c2noc([C@@H]3CCCN3CC(C)C)n2)ccn1	-50.6%	-42.7%	-12.6%	-38.7%	-23.5%
CN1CCN(c2cc(=O)c3ccnc(Nc4ccc(F)c(Cl)c4)c3o2)CC1	-18.4%	-9.73%	-30.7%	-33.8%	-7.07%
COc1cccc(CNC(=O)Cn2nc3n(Cc4ccc(F)cc4)c(=O)c4ccccc4n3c2=O)c1	1.14%	4.99%	5.31%	-3.94%	0.328%
C=CCn1c(=O)c2ccc(C(=O)NC(C)CC)cc2n2c(=O)n(CC(=O)Nc3ccccc3)nc12 (stereo not given)	-1.01%	1.68%	-2.48%	-1.37%	-0.156%
O=C(NCCCNC(=O)c1ccc[nH]c1=O)c1cc(-c2ccccc2)on1	-1.86%	-4.42%	10.8%	-14.6%	-0.441%
CCCN1CCCC2(CCN(C(=O)c3ccc4nc(C)sc4c3)C2)C1=O (stereo not given)	-1.66%	-1.18%	0.108%	-7.05%	11.6%
CCOC(=O)CNC(=O)C1(C)Cn2nc(C(=O)OCC)cc2C(=O)N1c1ccc(Cl)cc1 (stereo not given)	-5.55%	-0.59%	-0.417%	-7.76%	-3.69%
COc1ccc(CCNC(=O)C23CCC=C2N(C2CCCC2)C(=O)CC3)cc1OC (stereo not given)	-1.64%	-0.33%	1.65%	-6.09%	-13.2%
Cc1ccccc1CNC(=O)c1cc2n(n1)CC(C)(C(=O)NC1CCCCCC1)N(C)C2=O (stereo not given)	2.46%	0%	-1.28%	0.456%	-3.8%
COC(=O)c1cc2n(n1)CC(C)(C(=O)NC1CCC(C)CC1)N(Cc1ccccc1F)C2=O (stereo not given)	4.18%	0.589%	9.89%	-0.196%	2.59%
